# The campaign covered roughly 420,000 compounds. About 50,000 (12%) were called active. The shares of active, inactive and inconclusive entries below differ from those in the screen. Calls come from the whole dose curve; as a rule, active = well fitted inhibition curve with a large enough effect; inconclusive = small, poorly fitted or top-dose-only effect; inactive = flat fitted curve, though single readings scatter. No potency is given beside an inconclusive call; the fits are too rough.
# Assay: qHTS for Inhibitors of human tyrosyl-DNA phosphodiesterase 1 (TDP1): qHTS in cells in presence of CPT; note: nearly all actives have a fitted effect of over 55% in size
# Conditions: chicken DT40 Tdp1-/-;hTDP1 cells + 20 nM CPT, ATP luminescence, 48 h; activity change, negative = growth inhibition: at 46.2 µM (top of the series)
# Procedure, shortened: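 Cell growth measured by CellTiter-Glo luminescence after a minimum 48 h, 37 C compound exposure with 20 nM CPT in Tdp1-knockout DT40 cells stably expressing hTDP1, seeded 400/well; qHTS titration format.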
# % is set by controls: 0 for no effect and ±100 for the full control effect; potency is the fitted concentration of half-maximal effect; tags give direction and shape of the fitted curve.
Structure (SMILES),Potency,"activity change, negative = growth inhibition"
O=C1CC(N2CCN(c3ccc(F)cc3)CC2)C(=O)N1Cc1ccc(N2CCCC2=O)cc1 (configuration not stated),"inconclusive [inhibitor, single point]",–
CCc1ccccc1NC(=O)CN(C)C(=O)COC(=O)c1c(Cl)cccc1Cl,inactive,–
COc1ccc(S(=O)(=O)N2CCOCC2)cc1NC(=O)c1ccc(S(=O)(=O)N2CCCCC2)cc1,active: 11.6 µM,–
O=C(Cc1ccccc1)Nc1sc2c(c1C(=O)Nc1cccc(Cl)c1)CCCCC2,inactive,–
COC(=O)c1ccc(CNC(=O)C(Cc2ccccc2)NC(=O)c2ccccc2)cc1 (configuration not stated),inactive,–
CC(CNC(=O)CCn1ccc2cc(S(=O)(=O)N3CCCC3)ccc21)c1ccccc1 (configuration not stated),"inconclusive [inhibitor, single point]",–
CCCCN1C=CC(=C2C(=O)c3ccccc3C2=O)C=C1,"inconclusive [inhibitor, partial curve, poor fit]",–
O=C1c2ccccc2N2C(=O)c3ccccc3C2N1Cc1ccccc1 (configuration not stated),"inconclusive [inhibitor, single point]",–
COc1ccc(C(=O)c2[nH]c(N)c(C(=O)NCCc3c[nH]c4ccccc34)c2-c2ccccc2Br)cc1,active: 13 µM,–
O=C(CSc1nc2cc(Cl)ccc2s1)c1cc2ccccc2o1,–,inconclusive: -30.1% [inhibitor]
Cc1ccccc1-n1nc2c(c1NC(=O)CCCl)CSC2,"inconclusive [inhibitor, single point]",–
CCOc1ccc(NC(=O)CN2C(=O)CSc3ccc(S(=O)(=O)N4CCCC4)cc32)cc1,"inconclusive [inhibitor, single point]",–
O=C(NCc1ccco1)c1ccc(Cn2c(SCc3ccccc3)nc3cccnc32)cc1,active: 4.11 µM,–
CCn1ncc(CNC(=O)CCSc2nc(-c3ccco3)cc(C(F)(F)F)n2)c1C,"inconclusive [inhibitor, partial curve]",–
O=C(Cc1cccs1)NCc1cccc(F)c1,inactive,–
Cc1ccccc1C#N,inactive,–
COc1ccc(OC)c(-c2cc(-c3cccnc3)nc(N)c2C#N)c1,active: 0.92 µM,–
CN(C)CCCN1C(=O)c2cccc3cccc(c23)C1=O,"inconclusive [inhibitor, single point]",–
C#Cc1cccc(Nc2nc(NCc3ccccc3)nc3ccsc23)c1,active: 9.2 µM,–
Cc1cccc(-c2nc(CS(=O)CC(=O)N3CCCCC3)c(C)o2)c1 (configuration not stated),"inconclusive [inhibitor, single point]",–
CC(C)c1nc2oc3c(N(C)CCO)ncnc3c2c2c1CCC2,"inconclusive [inhibitor, partial curve, poor fit]",–
Cc1nc(C(=O)N/N=C/c2[nH]ncc2Br)cs1,"inconclusive [inhibitor, single point]",–
Cc1[nH]c2ccccc2c1C(=O)COC(=O)c1cccc(S(=O)(=O)N2CCCCC2)c1,active: 18.4 µM,–
Cc1ccc(S(=O)(=O)c2cn(Cc3ccccc3)c3cc(N4CCCCC4)c(F)cc3c2=O)cc1,active: 8.2 µM,–

Structure (SMILES),Potency,"activity change, negative = growth inhibition"
Cc1ccc(O)c(NC(=O)c2noc(C(C)C)c2[N+](=O)[O-])c1,"inconclusive [inhibitor, single point]",–
Oc1oc(-c2ccccc2)nc1C=Nc1ccccc1,inactive,–
Cc1cc(N2CCCC2)nc(-c2ccccc2O)n1,inactive,–
Cc1cc(C)cc(N(CC(=O)NC2CCCCC2)C(=O)c2csnn2)c1,inactive,–
Cc1ccc(N2C(N)=C(C#N)C(c3cccnc3)C3=C2CC(C)(C)CC3=O)cc1 (configuration not stated),"inconclusive [inhibitor, single point]",–
COc1ccc(-c2noc(-c3ccc(N4CCOCC4)c([N+](=O)[O-])c3)n2)cc1,inactive,–
CN(CCc1ccccc1)C(=O)c1cccc(NC(=O)Cc2cccc(NC(=O)C3CCN(C(=O)c4ccccc4)CC3)c2)c1,"inconclusive [inhibitor, partial curve]",–
O=S(=O)(Nc1ccc(-c2ccc(N3CCOCC3)nn2)cc1)c1cc(Cl)ccc1Cl,inactive,–
CCOC(=O)c1c(C)sc(-c2c(-c3ccccc3)[nH]c3[nH]c(=O)[nH]c(=O)c23)c1O,inactive,–
Cc1cc(Cl)ccc1OCC(=O)Nn1c(C)ccc1C,"inconclusive [inhibitor, partial curve]",–
CCc1ccc(N=C2NC(=O)/C(=C/c3cc(OC)c(OC)c(OC)c3)S2)cc1,"inconclusive [inhibitor, partial curve, poor fit]",–
Cn1cccc1C(=O)Nc1ccc(N2CCOCC2)cc1,inactive,–
CCCCCNC(=O)C(C1CC1)n1c(=O)c(-c2cc3ccccc3[nH]2)nc2ccccc21 (configuration not stated),"inconclusive [inhibitor, single point]",–
COc1cc2c(cc1OC)CN(C(=O)c1ccc(S(=O)(=O)N3CCCCCC3)cc1)CC2,active: 20.6 µM,–
CC1=C(C(=O)Nc2ccccc2C)C(c2cccs2)n2nc(SCc3ccccc3)nc2N1 (configuration not stated),active: 20.6 µM,–
CCc1ccc(S(=O)(=O)NCc2ccc3c(c2)CCN3C(=O)c2ccc(C)cc2)cc1,active: 7.31 µM,–
CCOc1cc(C)c(S(=O)(=O)Nc2ccc(Cl)cn2)cc1C,"inconclusive [inhibitor, single point]",–
COc1ccc(CCN(C)CCC(=O)Nc2cc(C)ccc2C)cc1OC,"inconclusive [inhibitor, single point]",–
O=C(COC(=O)CNC(=O)C1CCCCC1)Nc1ccccc1OC(F)F,"inconclusive [inhibitor, single point]",–
O=C(CSc1nc(O)cc(=O)n1-c1ccccc1)NCc1ccccc1,inactive,–
CC1=CC(C)(C)Nc2ccc(OC(=O)CN3C(=O)C4CCCCC4C3=O)cc21 (configuration not stated),active: 1.64 µM,–
Cc1ccc(S(=O)(=O)N2CCN(C(=O)c3cc(S(=O)(=O)N4CCOCC4)c(Cl)cc3Cl)CC2)cc1,"inconclusive [inhibitor, single point]",–
COc1cc(C(=O)Nc2cccc(-c3cn4cccnc4n3)c2)cc(OC)c1OC,"inconclusive [inhibitor, full curve, poor fit]",–
CCc1ccc(-n2nc(CO)c(C(=O)NCCOC)n2)cc1,inactive,–

Structure (SMILES),Potency,"activity change, negative = growth inhibition"
CCc1ccc(-c2cc(C)no2)cc1S(=O)(=O)N1CCN(c2ccccn2)CC1,"inconclusive [inhibitor, single point]",–
C[C@H]1CN([C@@H](C)CO)C(=O)c2cccc(NS(=O)(=O)c3ccc(F)cc3)c2O[C@H]1CN(C)Cc1ccc(Cl)c(Cl)c1,"inconclusive [inhibitor, single point]",–
CCOC(=O)N1CCN(Cc2nc3cc(NC(C)=O)ccc3n2CC)CC1,inactive,–
COc1ccc(CCNC(=O)c2nnn(-c3cccc(C)c3)c2N)cc1OC,"inconclusive [inhibitor, single point]",–
CCOC(=O)C1(C)CCCN(C(=O)CCc2ccccc2)C1 (configuration not stated),inactive,–
O=C(CCC(=O)N1CCN(c2ccc(C(F)(F)F)cn2)CC1)c1cccs1,"inconclusive [inhibitor, partial curve]",–
Cc1ccccc1CN1C[C@@H]2C[C@@H](c3cn(C)nc3-c3ccccc3)N3CCC[C@@]23C1=O,"inconclusive [inhibitor, single point]",–
COc1ccc(OC)c(S(=O)(=O)N2CCC(n3c(C)nc4cccnc43)CC2)c1,"inconclusive [inhibitor, single point]",–
Cc1ccc(-c2cc(C(=O)N/N=C/c3cccnc3)c3ccccc3n2)cc1C,active: 8.2 µM,–
COc1ccc2[nH]c(=O)c(CN(CC3CCCO3)C(=O)Nc3ccccc3)cc2c1 (configuration not stated),"inconclusive [inhibitor, partial curve]",–
O=C(CSc1nc(N2CCOCC2)nc(N2CCOCC2)n1)Nc1cccc(C(F)(F)F)c1,inactive,–
Cc1ccc(CNS(=O)(=O)c2ccc(C(=O)N(C)C)s2)cc1,"inconclusive [inhibitor, single point]",–
CC1CCN(S(=O)(=O)c2ccc(C(=O)Nc3nnc(C4CC4)o3)cc2)CC1,active: 18.4 µM,–
O=C(NCc1ccco1)c1ccc(C(=O)NCc2ccco2)s1,"inconclusive [inhibitor, single point]",–
CCOc1ccc(NC(=O)Cn2c(=O)n(Cc3ccc4c(c3)OCO4)c(=O)c3ccc(C(=O)NC4CCCCC4)cc32)cc1,active: 2.59 µM,–
OCc1nc2ccccc2n1CCCc1ccccc1,active: 16.4 µM,–
COc1cccc2oc3ccc(C#Cc4ccccn4)cc3c(=O)c12,active: 11.6 µM,–
Cc1cccc(N2C(=O)NC3(CCCCC3)C2=O)c1,inactive,–
CCOc1ccc(Oc2ccccc2NC(=O)CCc2nc3ccccc3c(=O)[nH]2)cc1,active: 23.1 µM,–
Cc1cccc(NC(=O)Cn2c(=O)n(Cc3ccc4c(c3)OCO4)c(=O)c3oc4ccccc4c32)c1C,active: 7.31 µM,–
N#CC1=C(N)Nc2nc3ccccc3n2C1c1ccc(Cl)cc1 (configuration not stated),"inconclusive [inhibitor, single point]",–
CCC(C)Sc1nc2c(c(=O)[nH]c(=O)n2C)n1Cc1ccccc1Cl (configuration not stated),"inconclusive [inhibitor, single point]",–
CCN(Cc1ccncc1)C(=O)c1cc(COc2c(C)cccc2C)on1,active: 11.6 µM,–
COc1ccccc1CN(Cc1nc2ccccc2c(=O)[nH]1)S(=O)(=O)c1ccc2ccccc2c1,active: 3.66 µM,–

# Source: PubChem BioAssay AID686979 (National Center for Advancing Translational Sciences (NCATS), 2013)
